The source gives no read counts; variants with many changes may rest on few reads.
B1: CPEB3 Ribozyme (parent)
chain: UAACAGGGGGCCACAGCAGAAGCGUUCACGUCGCAGCCCCUGUCAGAUUCUGGUGAAUCUGCGAAUUCUGCUGUAUAUCUC

Variants of: B1
Assay: self-cleavage, relative activity (ratio to wild type); higher = more cleavage; in vitro, sequencing
Outline: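 After error-prone PCR and barcoding, CPEB3 ribozyme mutant libraries were transcribed with T7 RNA polymerase at 37°C for 5 hours, then given 15 min with DNase I before an EDTA stop, and they cleaved during both steps. Reverse transcription with template switching preceded Illumina sequencing. Relative activity divides a variant's cleaved/total read fraction by the unmutated ribozyme's. At least 5 reads were required per variant, and three batches were averaged.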

Variant | self-cleavage
UAACAGGGGGCCUCAGCAGAAGCGUUCACGUCGCAGCCCCUGUCGGAUCCUGGUGAAUCAGCGCAUUCUGCUGUAUAUCUC [A13U A45G U49C U60A A64C] | 0.1
UAACAGGGGGCCUCAGCAGAAGCGUUCACGUCGCAGCCCCUGUCUGAUUCUGGUGAAUCUGCGAAAUCUGCAGUAUAUCUC [A13U A45U U66A U72A] | 0.12
UAACAGGGGGCCUCAGCAGAAGCGUUCACGUCGCAGCCCCUGUCAGGUUCUGGUGAAUCUGCGAUUUCUGCAGUAUAUCUC [A13U A47G A65U U72A] | 0.3
UAACAGGGGGCCUCAGCAGAAGCGUUCACGUCGCAGCCCCUGUCAGGUUCUGGUGAAUCUGCGAAUUCAGCUGUAUAUCUC [A13U A47G U69A] | 0.63
UAACAGGGGGCCUCAGCAGAAGCGUUCACGUCGCAGCCCCUGUCAGAUUCUGGUGGACCUGCGAAUUCUGCUGUAUAUCUC [A13U A56G U58C] | 0.21
UAACAGGGGGCCUCAGCAGAAGCGUUCACGUCGCAGCCCCUGUCAGAUUCUGGUGUAUCCGCGAAUUCUGCUGUAUAUCUC [A13U A56U U60C] | 0.17
UAACAGGGGGCCUCAGCAGAAGCGUUCACGUCGCAGCCCCUGUCAGAUUCUGGUGAGUCUGCGAAUUCUGUUGUUUAUCUC [A13U A57G C71U A75U] | 0.77
UAACAGGGGGCCUCAGCAGAAGCGUUCACGUCGCAGCCCCUGUCAGAUUCUGGUGAGUCUGCGAAUUCCGCCGUAUAACAC [A13U A57G U69C U72C U78A U80A] | 0.43
UAACAGGGGGCCUCAGCAGAAGCGUUCACGUCGCAGCCCCUGUCAGAUUCUGGUGAGUCUGCGAAUUCUGCUGUAUAUCAC [A13U A57G U80A] | 1.12
UAACAGGGGGCCUCAGCAGAAGCGUUCACGUCGCAGCCCCUGUCAGAUUCUGGUGAAUCUGCGCAUACUGCUGUAUAUCUC [A13U A64C U67A] | 0.25
UAACAGGGGGCCUCAGCAGAAGCGUUCACGUCGCAGCCCCUGUCAGAUUCUGGUGAAUCUGCGAGUCCUGCUGUAUAUCUC [A13U A65G U67C] | 0.23
UAACAGGGGGCCUCAGCAGAAGCGUUCACGUCGCAGCCCCUGUCAGAUUCUGGUGAAUCUGCGAAUUCUGCUGUGUAUUUC [A13U A75G C79U] | 1.26
UAACAGGGGGCCUUAUCAGAAGCGUUCACGACGCAGCCCCUGUCAGAUUCUGGUGAAUCUGUGAAUUCUGCUGUAUAUCUC [A13U C14U G16U U31A C62U] | 0.2
UAACAGGGGGCCUUAGCAGAAGCGUUCACGUCGCAGCCCCUAUCAGAAUCUGGUGAAUCUGCGAAUUCAGCUGUAUAUCUC [A13U C14U G42A U48A U69A] | 0.17
UAACAGGGGGCCUUAGCAGAAGCGUUCACGUCGCAGCCCCUGUCAGAUUCCGGUGAAUCUGCGAAUUCGGCUGUAUAUCUC [A13U C14U U51C U69G] | 0.58
UAACAGGGGGCCUCAGAAGAGGCGUUCACGUCGCAGCCCCUGUCAGAUUCUGGUGAAUCUGCGAAUUCUGCUGUAUAUCUC [A13U C17A A21G] | 0.16
UAACAGGGGGCCUCAGGAGAAGCGUUCACGACGCAGCCCCUGUCUGAUUCUGGUGAAUCUGCGAAUUCUGCUAUAUAUCUC [A13U C17G U31A A45U G73A] | 0.13

Variant | self-cleavage
UAACAGGGGGCCUCAGUGGAAGCGUUCACGUCGCAGCCCCUGGCAGGUUCUGGUGGAUCUGCGAAUUCUGCUGUAUAUCUC [A13U C17U A18G U43G A47G A56G] | 0.07
UAACAGGGGGCCUCAGUAGAAGCGUUCACGUCGCAGACCCUGUCAGAUUCUCGUGAAUCUGCGAAUUCUGCUGUAUAUCUC [A13U C17U C37A G52C] | 0.13
UAACAGGGGGCCUCAGUAGAAGCGUUCACGUCGCAGCCCGUGUCGGAUACUGGUGAAUUUGCGAAUUCUGCCGUAUAUCUC [A13U C17U C40G A45G U49A C59U U72C] | 0.03
UAACAGGGGGCCUCAGUAGAAGCGUUCACGUCGCAACCCCUGUCGGCUUCCGGUGAAUCCGCGAAUUCUGCUGUAUAUCUC [A13U C17U G36A A45G A47C U51C U60C] | 0.05
UAACAGGGGGCCUCAGUAGAAGCGUUCACGUCGCAGCCCCUGUCAGACUCCGGUCAAUCUGCGAAUUCUGCCGUAUAUCAC [A13U C17U U48C U51C G55C U72C U80A] | 0.13
UAACAGGGGGCCUCAGCAGAAGUGUUCACGUCGCAGCCCCUGUCAGAUUCUGGUGUAUCUGCGAAUUCUGCUGUAUAUCUC [A13U C23U A56U] | 0.11
UAACAGGGGGCCUCAGCAGAAGUGUUCACGCCGCAGCCCCUGUCCGAUUCUGGUGAAUCUGCGGAUUCUGCAGUAUAUCUC [A13U C23U U31C A45C A64G U72A] | 0.08
UAACAGGGGGCCUCAGCAGAAGCGUUAACGUCGCAGCCCCUGUCAGAUUCUGGUGAGUCUGCGAAUACUGCUGUAUAUCUC [A13U C27A A57G U67A] | 0.12
UAACAGGGGGCCUCAGCAGAAGCGUUAACGUAGCAGCCCCUGUCAGAUUCAGGUGAAACUGCGAAUUCUGCUGUUUAUCUC [A13U C27A C32A U51A U58A A75U] | 0.13
UAACAGGGGGCCUCAGCAGAAGCGUUAACGUCGCAGCCCCUGUCAGAUUCGGGUGAACCUGCGAAUUCUGCUGUAUAUCUC [A13U C27A U51G U58C] | 0.11
UAACAGGGGGCCUCAGCAGAAGCGUUCAGGUCGCAGCCCCUGUCAGAUUCUGGUGAACCUGCGAAUUCCGCUGUAUAUCUC [A13U C29G U58C U69C] | 0.14
UAACAGGGGGCCUCAGCAGAAGCGUUCACGUAGUAGCCCCUGUCAGAUUCUGGUGAAUCUGCGAAUUCUGCUGUAUAUCCA [A13U C32A C34U U80C C81A] | 0.08
UAACAGGGGGCCUCAGCAGAAGCGUUCACGUUGCAGGCCCUGUCAGAUUCUGGUGAAUCUGCGAAUUCUGCUGUAUAUCUC [A13U C32U C37G] | 0.15
UAACAGGGGGCCUCAGCAGAAGCGUUCACGUUGCAGCCCCUGCCAGAUUCUGGUGAAUCUGCGAAUUCUGCUGUAUAUCCC [A13U C32U U43C U80C] | 0.26
UAACAGGGGGCCUCAGCAGAAGCGUUCACGUCGGAGCCCCUGUCAGAUUCUGGUGAAUCUGCGAACUCUGCCGUAUAUCUC [A13U C34G U66C U72C] | 0.14
UAACAGGGGGCCUCAGCAGAAGCGUUCACGUCGCAGUCCCUGUCAGAUUCUAGUGAAUCUGAGAAUUCUGCUGUAUAUCUC [A13U C37U G52A C62A] | 0.17
UAACAGGGGGCCUCAGCAGAAGCGUUCACGUCGCAGUCCCUGUCAGAUUCUGGAGAAUCUGCGAAUUCUGCUGUAUAUCUC [A13U C37U U54A] | 1.01

Source: the RNAGym collection of RNA variant scans (doi:10.1093/nar/gkz1192)
